Reference: PubChem BioAssay AID1508642 (National Center for Advancing Translational Sciences (NCATS), 2021)
The whole screen tested about 43,000 compounds, of which about 200 (0.47%) were called active. Roughly 12% stayed inconclusive and do not appear here. Calls follow the shape of the dose curve; as a rule, active = well fitted cell-killing curve with a large enough effect; inconclusive = small, poorly fitted or top-dose-only effect, or effect the other way; inactive = flat fitted curve, though single readings scatter. Some of the results follow.

Assay: Cell viability qHTS assay in S16 Pmp22-F2sN cells; also: nearly all actives have a fitted effect of over 65% in size
Conditions: S16 Pmp22-F2sN Schwann cells (luciferase reporters placed in the Pmp22 gene) viability, CellTiter-Glo, 24 h; series mostly up to 57.5 µM; activity change, negative = cytotoxicity: at the top concentration
In short: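 Rat S16 Schwann reporter line, 24 h treatment with library compounds delivered at 23 nL per well. Cell viability by CellTiter-Glo luminescence.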
% is scaled to controls: 0 for no effect and ±100 for the full control effect.

| Compound | activity change, negative = cytotoxicity |
| --- | --- |
| Cc1ccc(-n2nc3c(=O)n(CC(=O)NCC(C)c4ccccc4)nc(C)c3c2C)cc1 (stereo not drawn) | inactive: -9.87% |
| COc1ccc(Cn2ccc3nc(C)c(C(=O)NCc4cccc(OC)c4)cc3c2=O)cc1 | inactive: -0.851% |
| CCc1ccccc1NC(=O)Cn1c2ncccc2c(=O)n1-c1ccccc1 | inactive: 1.58% |
| Cc1cc(=O)c2cc(C(=O)Nc3ccccc3C)ccc2[nH]1 | inactive: 9.22% |
| CCOc1cc2sc(N3CCC(C(=O)Nc4cc(C)cc(C)c4)CC3)nc2cc1Br | inactive: -0.587% |
| COC(=O)c1cc2sc(Cl)cc2n1Cc1cc(C)ccc1C | inactive: 6.05% |
| CCOc1ccc(CNC(=O)CCCc2cn(C)c3ccccc23)cc1OC | inactive: -5.05% |
| CCn1cc2c(n1)-c1c(oc(C(=O)Nc3cccc(C(F)(F)F)c3)c1C)CC2 | inactive: 13.3% |
| COc1cc(F)c(S(=O)(=O)Nc2c(C)n(C)n(-c3ccccc3)c2=O)cc1OC | inactive: -0.005% |
| COC(=O)c1ccc(CSc2nnc3ccc4ccccc4n23)cc1 | inactive: 7.35% |
| COc1ccc(S(=O)(=O)NCc2cccn2Cc2cccc(C)c2)cc1 | inactive: 9.66% |
| COc1ccccc1NC(=O)CC(c1cc(OC)c(OC)c(OC)c1)N1Cc2ccccc2C1=O (stereo not drawn) | inactive: -0.189% |
| CCCCCSc1nc2sc3c(c2c(=O)n1-c1ccc(OC)cc1)CCN(C(C)=O)C3 | inactive: 29.1% |
| Cc1ccc(Nc2c(-c3ccsc3)nc3c(C)cccn23)cc1 | inactive: -16.5% |
| COc1ccccc1CNC(=O)Cn1ncn2c(cc3sccc32)c1=O | inactive: 12.3% |
| CCOC(=O)CSc1nnc2n(-c3ccccc3)c(=O)c3c4c(sc3n12)CC(C(C)(C)C)CC4 (stereo not drawn) | inactive: 4.68% |
| COc1cc2c(cc1NC(=O)COc1ccc(Cl)cc1Br)oc1ccccc12 | inactive: 8.12% |
| Cc1ccc(-n2nnc(-c3nc(-c4cccs4)no3)c2N)c(C)c1 | inactive: 5.85% |
| COc1ccc(S(=O)(=O)c2c(C(=O)c3ccc(C)c(C)c3)cnc3ccc(F)cc23)cc1 | inactive: -16.4% |
| CC(C)c1ccc(OCC(=O)Nc2c(C(=O)c3ccc(F)cc3)oc3ccccc23)cc1 | inactive: 8.76% |
| Cc1ccc(CNC(=O)C2COc3ccccc3C2)cc1 (stereo not drawn) | inactive: -3.21% |
| COc1ccc2c(c1)Cc1sc(NC(=O)c3cccc(C)c3)nc1-2 | inactive: 0.784% |
| COc1ccccc1CNC(=O)CC(c1ccc(C)cc1)N1Cc2ccccc2C1=O (stereo not drawn) | inactive: 2.02% |
| Cc1cc(C)cc(-n2ccn(Cc3ccccc3C)c(=O)c2=O)c1 | inactive: -1.81% |
| Cc1ccc(OCC(=O)OC2=C(C(=O)c3ccccc3)N(C)S(=O)(=O)c3ccccc32)cc1 | inactive: -10.7% |
| Cc1ccccc1NC(=O)c1sc2nc3n(c(=O)c2c1C)CCC3 | inactive: -2.25% |
| Cc1oc(-c2ccc(C(=O)NCCC(C)C)cc2)nc1CN1CCc2ccccc21 | inactive: 21.5% |
| COC(=O)CSc1nc2sc3c(c2c(=O)n1-c1ccccc1C)CC(C)(C)OC3 | inactive: 0.972% |
